# Source: PubChem BioAssay AID504845 (National Center for Advancing Translational Sciences (NCATS), 2011)
# Screen size: about 390,000 compounds; about 150 (0.038%) were called active. Inconclusive means that the source gave no clear call. Such entries were picked first, then a sample of the others. Calls come from the whole dose curve; as a rule, active = well fitted inhibition curve with a large enough effect; inconclusive = small, poorly fitted or top-dose-only effect; inactive = no such curve, though single readings can be large or run the other way. Potencies of inconclusive entries are doubtful fits and often do not repeat.
# Molecular target: Regulator of G-protein signaling 4 (Homo sapiens) (UniProt P49798)
# Chain of UniProt P49798 (P49798 whole entry, looked up): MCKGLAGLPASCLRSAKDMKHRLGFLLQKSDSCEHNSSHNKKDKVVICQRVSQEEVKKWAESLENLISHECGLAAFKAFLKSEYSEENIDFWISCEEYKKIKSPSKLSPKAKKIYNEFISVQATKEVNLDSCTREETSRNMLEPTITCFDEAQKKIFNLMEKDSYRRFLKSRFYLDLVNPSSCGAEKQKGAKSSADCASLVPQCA
# Assay: Inhibitors of Regulator of G Protein Signaling (RGS) 4: qHTS; note: nearly all actives have a fitted effect of over 75% in size
# Conditions: Transcreener GDP fluorescence polarization, RGS4-accelerated GTP hydrolysis; series mostly up to 114 µM
# Outline: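 MLSMR compounds (23 nl, pin-transferred) preincubated 10 min at room temperature with a 500nM (2x) first reagent, then RGS4 at 900nM (2x) plus Transcreener GDP mix added; fluorescence polarization (620/688 nm) read before and after 90 min at 30 °C.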
# Potency is the fitted concentration of half-maximal effect; tags give direction and shape of the fitted curve.
row,Compound,Potency
1,O=C(Nc1cccc(S(=O)(=O)N2CCCC2)c1)c1cccc(S(=O)(=O)N2CCOCC2)c1,inactive
2,COC(=O)C1=C(C)NC(=O)/C1=C\c1cc(C)n(-c2ccccc2)c1C,inactive
3,O=C(Nc1ccccn1)c1ccc(S(=O)(=O)N2CCCCC2)cc1,"inconclusive: 89.1 µM [inhibitor, single point]"
4,CCOC(=O)c1cnc2c(OC)cccc2c1N1CCN(c2ccccc2F)CC1,inactive
5,S=c1[nH]nc(COc2ccccc2)n1/N=C/C(Cl)=C/c1ccccc1,"inconclusive: 79.4 µM [inhibitor, partial curve, poor fit]"
6,C#CCN(N(C)c1ncc(C(F)(F)F)cc1Cl)S(=O)(=O)c1ccc2ccccc2c1,"inconclusive: 79.4 µM [inhibitor, partial curve, poor fit]"
7,COc1cc(-c2cc3n(C)c(C)c(CCC(=O)NC4CCC(C)CC4)c(=O)n3n2)cc(OC)c1OC (stereo unspecified),inactive
8,O=c1[nH]c(=S)[nH]c2sc3c(c12)CCCCCC3,"inconclusive: 70.8 µM [inhibitor, partial curve, poor fit]"
9,CCOc1ccc(N(C(C)C(=O)N2CCCC2)S(C)(=O)=O)cc1 (stereo unspecified),"inconclusive: 79.4 µM [inhibitor, partial curve, poor fit]"
10,Nc1scc2c(C(=O)N/N=C/c3ccc(Cl)cc3)nn(-c3ccccc3)c(=O)c12,"inconclusive: 79.4 µM [inhibitor, partial curve, poor fit]"
11,O=C(O)CN1C(=O)/C(=C\c2ccccc2OCc2ccc(Cl)cc2Cl)SC1=S,"inconclusive: 79.4 µM [inhibitor, partial curve, poor fit]"
12,Cc1cc2ccccn2c1C(=O)c1ccccc1F,inactive
13,CCOc1ccc(NC(=O)COc2ccccc2)c([N+](=O)[O-])c1,"inconclusive: 70.8 µM [inhibitor, single point]"
14,O=[N+]([O-])c1ccc(NN=Cc2ccccc2O)nc1,inactive
15,C=CCn1c(=O)c2c(nc3n2CC(C)CN3Cc2ccccc2)n(C)c1=O (stereo unspecified),"inconclusive: 79.4 µM [inhibitor, single point]"
16,CC(=O)[C@@H]1[C@@H](C(=O)c2ccc(C)cc2)[C@]2(C(=O)Nc3ccccc32)[C@H]2C=Cc3cc(F)ccc3N12,"inconclusive: 70.8 µM [inhibitor, single point]"
17,COc1ccc(-n2nc3c(N4CCCC(C(=O)NCc5ccccc5C)C4)nnc(C)c3c2C)cc1 (stereo unspecified),"inconclusive: 50.1 µM [inhibitor, partial curve, poor fit]"
18,Cc1ccc(NC(=S)NNC(=S)NC2CCCCC2)cc1,"inconclusive: 50.1 µM [inhibitor, partial curve, poor fit]"
19,O=C(O)CN1C(=O)/C(=C\c2cc(Br)ccc2OCc2ccc(Cl)cc2)SC1=S,"inconclusive: 50.1 µM [inhibitor, partial curve, poor fit]"
20,COc1cc(/C=C2\COC/C(=C\c3cc(OC)c(OC)c(OC)c3)C2=O)cc(OC)c1OC,"inconclusive: 44.7 µM [inhibitor, partial curve, poor fit]"
21,CC1=C(C#N)c2nc(N)c(C#N)c(C)c2/C1=C\c1ccc(-c2ccccc2C(=O)O)o1,"inconclusive: 35.5 µM [inhibitor, full curve, poor fit]"

row,Compound,Potency
1,COc1cc(NC(=S)N2CCN(c3ccccn3)CC2)c(OC)cc1Cl,"inconclusive: 44.7 µM [inhibitor, partial curve, poor fit]"
2,CCN1CCN(C(c2cccc(OC)c2)c2c(O)cc(C)n(Cc3ccco3)c2=O)CC1 (stereo unspecified),inactive
3,Nc1ccc2nc(-c3ccc(Cl)cc3)[nH]c2c1,"inconclusive: 39.8 µM [inhibitor, full curve, poor fit]"
4,CCOC(=O)N1CCc2c(sc(NCc3ccc(N(C)C)cc3)c2C(=O)Nc2ccccc2OCC)C1,"inconclusive: 56.2 µM [inhibitor, partial curve, poor fit]"
5,O=C(CSc1nc2ccccc2o1)c1cc2ccccc2oc1=O,"inconclusive: 44.7 µM [inhibitor, partial curve, poor fit]"
6,Cc1sc2ncnc(SCC(=O)NC(=O)c3cccn3C)c2c1C,"inconclusive: 89.1 µM [inhibitor, single point]"
7,Cc1ccccc1NC(=O)CN1C(=O)C2C3CC(C(Br)C3Br)C2C1=O (stereo unspecified),"inconclusive: 35.5 µM [inhibitor, full curve, poor fit]"
8,CCSC1=N/C(=C\c2ccc(C(=O)O)cc2)C(=O)S1,inactive
9,CCc1cccc(-n2nnc(-c3nc(-c4ccc5c(c4)OCO5)no3)c2C)c1,inactive
10,CCCC(=O)Nc1ccc2nc(SCCOc3ccccc3)sc2c1,inactive
11,N#CC(C(=O)NC1CCCCC1)=C1CCCCCC1,inactive
12,CCOC(=O)c1[nH]c2c(c1C)C(=O)CC(c1ccco1)C2 (stereo unspecified),"inconclusive: 56.2 µM [inhibitor, partial curve, poor fit]"
13,Cc1noc(C)c1CSc1nnc(-c2ccccc2)n1N,"inconclusive: 44.7 µM [inhibitor, partial curve, poor fit]"
14,O=C(NC(Cc1ccccc1)C(=O)O)/C(=C\c1ccco1)NC(=O)c1ccccc1 (stereo unspecified),"inconclusive: 31.6 µM [inhibitor, full curve, poor fit]"
15,CCN1C2=NCCCN2c2cc(C)c(C)cc21,"inconclusive: 89.1 µM [inhibitor, single point]"
16,Nc1nc(Cl)nc2c1ncn2[C@@H]1O[C@H](COP(=O)(O)OP(=O)(O)OP(=O)(O)O)[C@@H](O)[C@H]1O,active: 0.532 µM
17,CC(C)(C)c1ccc(C(=O)NC(=S)NNC(=O)COc2ccccc2)cc1,"inconclusive: 17.8 µM [inhibitor, full curve, poor fit]"
18,Cc1ccn(C(CC(=O)c2ccc(Br)cc2)C(=O)O)n1 (stereo unspecified),"inconclusive: 17.8 µM [inhibitor, full curve, poor fit]"
19,CCOC(=O)c1ccc(N=Cc2cnc(N)nc2N)cc1,"inconclusive: 89.1 µM [inhibitor, single point]"
20,O=C(Nc1ccon1)c1ccc(S(=O)(=O)N2CCCCCC2)cc1,inactive
